Measured values published in PubChem BioAssay (Tox21).
Several values for one entry are separate records, joined by “and”; a condition that tells them apart may be missing. Equal values may be shown once. This list was built around the results that the source calls inconclusive (neither active nor inactive); the mix of calls is not that of the screen. Potencies of inconclusive entries are doubtful fits and often do not repeat. Activity calls are given as the source filed them. Calls follow the shape of the dose curve; as a rule, active = well fitted cell-killing curve with a large enough effect in the repeat runs; inconclusive = weak or mixed curves, or effect the other way; inactive = flat fitted curve, though single readings scatter.

experiment: qHTS RealTime-Glo MT Cell Viability Assay in HEK293 cells - 24 hour (AID 1224886); details: RealTime-Glo luminescence; series mostly up to 76.8 µM; activity change, negative = cytotoxicity: at the top concentration; as to activity change, negative = cytotoxicity: top concentration of the series differs between compounds
Method in brief: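 Nonlytic real-time viability readout: viable cells convert prosubstrate to NanoLuc substrate, giving luminescence proportional to live cell number. HEK293, 600 cells/well, compound added after 5 h, continuous culture at 37 C.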
% is scaled to controls: 0 for no effect and ±100 for the full control effect; potency is read from the fitted curve at half-maximal effect; tags tell the direction and shape of the fitted curve.
Also: nearly all actives have a fitted effect of over 50% in size.

| SMILES | Potency | activity change, negative = cytotoxicity |
| --- | --- | --- |
| CCCN[C@H]1CCc2nc(N)sc2C1 | inconclusive: 23.5 µM [cytotoxic, partial curve, poor fit] | – |
| COc1ccc(/C=C/c2cc(OC)cc(=O)o2)cc1 | inconclusive: 10 µM [cytotoxic, full curve] | – |
| C[C@@H]1C[C@H]2[C@@H]3CCC4=CC(=O)C=C[C@]4(C)[C@@]3(F)[C@@H](O)C[C@]2(C)[C@@]1(O)C(=O)CO | – | inactive: -21.4% |
| O=[N+]([O-])c1cccc(S(=O)(=O)NCCNS(=O)(=O)c2cccc([N+](=O)[O-])c2)c1 | – | inactive: -6.56% [at 35.3 µM] |
| CC(C)COC(=O)c1ccccc1O | – | inactive: 5.81% |
| C1CNCCN1 | inconclusive: 61.1 µM [rising, single point] | – |
| C=C(C)C(=O)OCCC[Si](Cl)(Cl)Cl | – | inactive: -7.78% |
| C[C@]12C=CC(=O)C=C1CC[C@H]1[C@@H]3C[C@@H](O)[C@](O)(C(=O)CO)[C@@]3(C)C[C@H](O)[C@@]12F | inactive | – |
| C[C@@H]1C[C@H]2[C@@H]3CCC4=CC(=O)C=C[C@]4(C)[C@@]3(F)[C@@H](O)C[C@]2(C)[C@@]1(O)C(=O)COP(=O)(O)O | – | inactive: -22.4% |
| CCC(C)N(C)C(=O)c1cc2ccccc2c(-c2ccccc2Cl)n1 (stereo not drawn) | inconclusive: 35.5 µM [cytotoxic, single point] | – |
| COC(C)COC(C)COC(C)CO (stereo not drawn) | inactive | – |
| Nc1nc2ccccc2n1Cc1ccc(F)cc1 | inconclusive: 4.77 µM [cytotoxic, full curve] | – |

experiment: qHTS RealTime-Glo MT Cell Viability Assay in HEK293 cells - 8 hour (AID 1224887); details: RealTime-Glo luminescence; series mostly up to 76.8 µM; activity change, negative = cytotoxicity: at the top concentration; as to activity change, negative = cytotoxicity: top concentration of the series differs between compounds
Method in brief: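 Viable HEK293 cells reduce a cell-permeant prosubstrate; the product diffuses out and is consumed by NanoLuc in the medium to give light. Compounds went in after a 5 h incubation and plates were read over the treatment course.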

| SMILES | Potency | activity change, negative = cytotoxicity |
| --- | --- | --- |
| CC(C)CC(C)(O)C#CC(C)(O)CC(C)C (stereo not drawn) | inconclusive: 60.4 µM [cytotoxic, partial curve, poor fit] | – |
| NC(=O)c1ncn([C@@H]2O[C@H](CO)[C@@H](O)[C@H]2O)n1 | inconclusive: 46 µM [cytotoxic, partial curve] | – |
| Oc1cccc(Nc2ccccc2)c1 | active: 11.4 µM | – |
| CC1(C)[C@H](C(=O)O)N2C(=O)C[C@H]2S1(=O)=O | – | inactive: -1.48% [at 35.3 µM] |
| COCCc1ccc(OCC(O)CNC(C)C)cc1 (stereo not drawn) | inactive | – |
| CCCCC/C=C\C/C=C\CCCCCCCC(=O)NC(C)c1ccccc1 (stereo not drawn) | inconclusive: 21.3 µM [cytotoxic, partial curve, poor fit] | – |
| CCOC(=O)COc1ccc2c(C)c(CCN(CC)CC)c(=O)oc2c1Cl | inconclusive: 23.9 µM [cytotoxic, single point] | – |
| Cc1cccc(Nc2ccccc2)c1 | inconclusive: 43.6 µM [cytotoxic, single point] | – |
| O=C(O)CC(=O)O | – | inactive: 0.508% |
| CCC(Cl)C(Cl)C(Cl)CC(Cl)C(Cl)C(C)Cl (stereo not drawn) | inconclusive: 24.5 µM [cytotoxic, partial curve, poor fit] | – |
| O=C1O[C@@H]2[C@@H](O)[C@H](O)O[C@@H]2[C@H]1O | – | inactive: 0.955% |
| COc1c(C)c2c(c(O)c1C/C=C(\C)CCC(=O)O)C(=O)OC2 | – | inactive: 0.926% [at 35.3 µM] |
| NC1CCCCC1N (stereo not drawn) | inactive | – |
| CCCCCCCCCCCC(=O)N(CC)CC | – | inactive: -17.8% |
| CC(=N\O)/C(C)=N/O | inconclusive: 38.9 µM [cytotoxic, partial curve] | – |
| O=P(O)(O)OCC(O)CO (stereo not drawn) | – | inactive: 6.01% [at 35.3 µM] |
| Cc1oc(C)c(C(=O)Nc2ccccc2)c1C | inconclusive: 49 µM [cytotoxic, partial curve] | – |
| Cc1ccc(C(=O)c2ccccc2)cc1 | – | inactive: -3.6% |
| CC(C)C(O)C(C)(C)CO (stereo not drawn) | inconclusive: 2.84 µM [cytotoxic, full curve] | – |
| Cc1c(Cn2ccnc2)c2ccccc2n1CCC(=O)O | – | inactive: 8.26% [at 35.3 µM] |
| CCCOC(=O)c1ccc(C(=O)OCCC)nc1 | – | inactive: 2.72% |
| C1CCOC1 | – | inactive: 0.617% |
| CCCCCCCCCCCCC | – | inactive: -0.193% |
| CSc1ccc(/C=C2/C(C)=C(CC(=O)O)c3cc(F)ccc32)cc1 | – | inactive: 23.3% [at 35.3 µM] |
| O=C(Nc1ccc(Oc2ccc(Cl)cc2)c(Cl)c1)c1cc(I)cc(I)c1O | – | inactive: 7.63% [at 35.3 µM] |

experiment: qHTS RealTime-Glo MT Cell Viability Assay in HepG2 cells - 0 hour (AID 1224889); details: RealTime-Glo luminescence; series mostly up to 76.8 µM; activity change, negative = cytotoxicity: at the top concentration
Method in brief: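 Luminescence read-out: viable HepG2 cells reduce a prosubstrate to a NanoLuc substrate, giving a signal proportional to live cell number. Reads taken at 0, 8, 16, 24, 32 and 40 h of compound exposure at 37 C.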

| SMILES | Potency |
| --- | --- |
| CCCN[C@H]1CCc2nc(N)sc2C1 | inactive |
| COc1ccc(/C=C/c2cc(OC)cc(=O)o2)cc1 | inconclusive: 22.4 µM [cytotoxic, partial curve] |
| C[C@@H]1C[C@H]2[C@@H]3CCC4=CC(=O)C=C[C@]4(C)[C@@]3(F)[C@@H](O)C[C@]2(C)[C@@]1(O)C(=O)CO | active: 22.2 µM |
| CC(C)COC(=O)c1ccccc1O | inconclusive: 21.9 µM [rising, single point] |
| C1CNCCN1 | inconclusive: 24.3 µM [cytotoxic, single point] |
| C=C(C)C(=O)OCCC[Si](Cl)(Cl)Cl | inconclusive: 44 µM [cytotoxic, partial curve, poor fit] |
| C[C@]12C=CC(=O)C=C1CC[C@H]1[C@@H]3C[C@@H](O)[C@](O)(C(=O)CO)[C@@]3(C)C[C@H](O)[C@@]12F | active: 21.9 µM and inconclusive: 21.3 µM [cytotoxic, partial curve] |
| C[C@@H]1C[C@H]2[C@@H]3CCC4=CC(=O)C=C[C@]4(C)[C@@]3(F)[C@@H](O)C[C@]2(C)[C@@]1(O)C(=O)COP(=O)(O)O | inconclusive: 22.8 µM [cytotoxic, partial curve, poor fit] |
| CCC(C)N(C)C(=O)c1cc2ccccc2c(-c2ccccc2Cl)n1 (stereo not drawn) | active: 20 µM |
| COC(C)COC(C)COC(C)CO (stereo not drawn) | inactive |
| Nc1nc2ccccc2n1Cc1ccc(F)cc1 | inconclusive: 13.4 µM [rising, partial curve] |
